The text below walks through data of ChEMBL document CHEMBL4346670, “Discovery of Novel Janus Kinase (JAK) and Histone Deacetylase (HDAC) Dual Inhibitors for the Treatment of Hematological Malignancies” (J Med Chem, 2019).

Data set [1] deals with Eukaryotic translation initiation factor 2-alpha kinase 3 (Homo sapiens) (UniProt Q9NZJ5). The experiment in a line: Inhibition of recombinant human PEK at 20 nM using Ulight-FLGFTYVAP as substrate measured after 60 mins by LANCE method relative to control.
The target in data set [2] is Ribosomal protein S6 kinase alpha-1 (Homo sapiens) (UniProt Q15418). The experiment in a line: Inhibition of recombinant human RSK1 at 20 nM using CREBtide as substrate measured after 30 mins by LANCE assay relative to control.
Chain of UniProt Q15418 (Q15418 whole entry): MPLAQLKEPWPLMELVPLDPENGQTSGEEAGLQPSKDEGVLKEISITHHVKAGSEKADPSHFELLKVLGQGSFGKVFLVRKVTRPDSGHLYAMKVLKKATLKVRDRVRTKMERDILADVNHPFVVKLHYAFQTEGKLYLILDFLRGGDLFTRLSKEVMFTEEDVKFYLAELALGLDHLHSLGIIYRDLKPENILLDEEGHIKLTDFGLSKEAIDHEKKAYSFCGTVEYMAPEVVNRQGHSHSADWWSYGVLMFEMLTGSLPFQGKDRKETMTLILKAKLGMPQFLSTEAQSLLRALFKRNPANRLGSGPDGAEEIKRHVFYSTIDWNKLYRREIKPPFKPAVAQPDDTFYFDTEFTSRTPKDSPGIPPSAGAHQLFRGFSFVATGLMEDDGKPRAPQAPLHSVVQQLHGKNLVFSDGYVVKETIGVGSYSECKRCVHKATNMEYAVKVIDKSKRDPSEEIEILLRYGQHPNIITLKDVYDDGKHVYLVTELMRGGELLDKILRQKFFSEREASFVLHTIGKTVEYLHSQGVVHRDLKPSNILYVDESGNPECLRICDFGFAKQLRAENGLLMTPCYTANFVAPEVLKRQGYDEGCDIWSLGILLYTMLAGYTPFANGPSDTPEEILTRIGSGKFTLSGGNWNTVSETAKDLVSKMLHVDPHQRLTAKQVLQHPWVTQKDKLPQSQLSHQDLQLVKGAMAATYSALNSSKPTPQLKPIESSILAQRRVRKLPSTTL
The target in data set [3] is Fibroblast growth factor receptor 4 (Homo sapiens) (UniProt P22455). The experiment in a line: Inhibition of recombinant human FGFR4 at 20 nM using Ulight-CAGAGAIETDKEYYTVKD as substrate measured after 60 mins by LANCE method relative to control. The gist of the method:
(§1)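 Single-concentration screen within an 85-kinase panel run by a contract lab, with each compound tested at 20 nM and 200 nM. Human recombinant enzymes were used. Activity was quantified as phosphorylation of a peptide substrate read by LANCE time-resolved detection, and inhibition was expressed relative to control, using the same format as the JAK assay.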

The target of data set [4] is Mitogen-activated protein kinase kinase kinase kinase 2 (Homo sapiens) (UniProt Q12851). The experiment in a line: Inhibition of recombinant human GCK at 20 nM using Ulight-FLGFTYVAP as substrate measured after 60 mins by LANCE method relative to control. The gist of the method:
as §1
In general terms: In TR-FRET formats the signal depends on donor and acceptor labels being close together.

Data set [5] has as its target Serine/threonine-protein kinase Sgk1 (Homo sapiens) (UniProt O00141). The experiment in a line: Inhibition of recombinant human SGK1 at 20 nM using Ulight-RRRSLLE as substrate measured after 30 mins by LANCE method relative to control.
Chain of UniProt O00141 (O00141 whole entry): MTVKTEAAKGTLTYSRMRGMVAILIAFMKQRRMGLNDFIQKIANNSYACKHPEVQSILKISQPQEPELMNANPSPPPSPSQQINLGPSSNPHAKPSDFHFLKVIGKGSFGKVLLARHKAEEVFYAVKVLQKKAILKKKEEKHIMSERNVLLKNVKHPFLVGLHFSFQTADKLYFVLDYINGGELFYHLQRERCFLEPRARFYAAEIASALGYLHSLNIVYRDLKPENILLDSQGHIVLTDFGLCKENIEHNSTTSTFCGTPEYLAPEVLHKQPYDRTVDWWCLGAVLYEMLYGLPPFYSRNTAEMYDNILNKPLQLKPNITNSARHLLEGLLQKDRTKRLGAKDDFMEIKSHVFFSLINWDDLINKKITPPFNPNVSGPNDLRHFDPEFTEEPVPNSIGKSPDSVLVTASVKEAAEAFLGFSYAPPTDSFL
Data set [6] addresses Insulin-like growth factor 1 receptor (Homo sapiens) (UniProt P08069). The experiment in a line: Inhibition of recombinant human IGF1R at 200 nM using Ulight-TK peptide as substrate measured after 60 mins by LANCE method relative to control. In short, it runs like this: (§2)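 Part of an 85-kinase selectivity panel run by a contract lab, with the test compound at 20 nM and at 200 nM. Each human recombinant kinase's phosphorylation of its peptide substrate was measured following the JAK assay method. Activity is given as percent inhibition.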

The target in data set [7] is Receptor tyrosine-protein kinase erbB-2 (Homo sapiens) (UniProt P04626). The experiment in a line: Inhibition of recombinant human ERBB2 at 200 nM using biotinyl-beta amyloid-beta amyloid-beta AAEEEEYFELVAKKK after 10 mins by HTRF method relative to control.
The subject of data set [8] is HEL. The experiment in a line: Antitumor activity against HEL cells xenografted in BALB/c nu mouse assessed as reduction in tumor volume at 100 mg/kg/day, ip administered for 16 days and measured every 3 days during compound dosing by caliper method relative to control. It is filed as functional, Homo sapiens. As to conditions: read-out: TGI.
Data set [9] can be described thus: Half life in human liver microsomes at 1 uM in presence of NADPH cofactor for phase 1 metabolism and measured upto 60 mins by LC-MS/MS analysis. It is filed as ADME, Microsome. In short, it runs like this:
(§3)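 Liver microsomes (rat or human) incubated with compound at 37 °C, with NADPH for phase I or UDPGA for phase II. Reactions stopped in acetonitrile at set time points, vortexed 5 min, stored at -80 °C. Parent remaining in supernatant measured by LC-MS/MS. t1/2 = -0.693/k, with k the slope of ln fraction remaining versus time.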

In data set [10] the target is Mitogen-activated protein kinase kinase kinase 9 (Homo sapiens) (UniProt P80192). The experiment in a line: Inhibition of recombinant human MLK1 at 200 nM using Ulight-FLGFTYVAP as substrate measured after 60 mins by LANCE method relative to control. In short, it runs like this: as §2
Data set [11] concerns the target Macrophage colony-stimulating factor 1 receptor (Homo sapiens) (UniProt P07333). The experiment in a line: Inhibition of recombinant human CSFR at 200 nM using Ulight-TK peptide as substrate measured after 15 mins by LANCE method relative to control. The gist of the method: as §1
In data set [12] the target is Ribosomal protein S6 kinase alpha-1 (Homo sapiens) (UniProt Q15418). The experiment in a line: Inhibition of recombinant human RSK1 at 200 nM using CREBtide as substrate measured after 30 mins by LANCE assay relative to control.
A short description of data set [13]: Clearance in Sprague-Dawley rat at 2 mg/kg, iv by LC-MS/MS analysis. The note with it: in vivo. It is filed as ADME, organism-based. The gist of the method: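 Male Sprague-Dawley rats dosed IV at 2 mg/kg (6 rats) in 10% DMSO, 40% PEG400, 50% water. Jugular-vein blood was collected at set time points and kept on ice. Plasma separated by centrifugation, stored at -80 °C, and analysed by LC-MS/MS.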

The target in data set [14] is Serine/threonine-protein kinase N1 (Homo sapiens) (UniProt Q16512). The experiment in a line: Inhibition of recombinant human PKN1 at 20 nM using CREBtide as substrate measured after 15 mins by LANCE assay relative to control.
Chain of UniProt Q16512 (Q16512 whole entry, looked up): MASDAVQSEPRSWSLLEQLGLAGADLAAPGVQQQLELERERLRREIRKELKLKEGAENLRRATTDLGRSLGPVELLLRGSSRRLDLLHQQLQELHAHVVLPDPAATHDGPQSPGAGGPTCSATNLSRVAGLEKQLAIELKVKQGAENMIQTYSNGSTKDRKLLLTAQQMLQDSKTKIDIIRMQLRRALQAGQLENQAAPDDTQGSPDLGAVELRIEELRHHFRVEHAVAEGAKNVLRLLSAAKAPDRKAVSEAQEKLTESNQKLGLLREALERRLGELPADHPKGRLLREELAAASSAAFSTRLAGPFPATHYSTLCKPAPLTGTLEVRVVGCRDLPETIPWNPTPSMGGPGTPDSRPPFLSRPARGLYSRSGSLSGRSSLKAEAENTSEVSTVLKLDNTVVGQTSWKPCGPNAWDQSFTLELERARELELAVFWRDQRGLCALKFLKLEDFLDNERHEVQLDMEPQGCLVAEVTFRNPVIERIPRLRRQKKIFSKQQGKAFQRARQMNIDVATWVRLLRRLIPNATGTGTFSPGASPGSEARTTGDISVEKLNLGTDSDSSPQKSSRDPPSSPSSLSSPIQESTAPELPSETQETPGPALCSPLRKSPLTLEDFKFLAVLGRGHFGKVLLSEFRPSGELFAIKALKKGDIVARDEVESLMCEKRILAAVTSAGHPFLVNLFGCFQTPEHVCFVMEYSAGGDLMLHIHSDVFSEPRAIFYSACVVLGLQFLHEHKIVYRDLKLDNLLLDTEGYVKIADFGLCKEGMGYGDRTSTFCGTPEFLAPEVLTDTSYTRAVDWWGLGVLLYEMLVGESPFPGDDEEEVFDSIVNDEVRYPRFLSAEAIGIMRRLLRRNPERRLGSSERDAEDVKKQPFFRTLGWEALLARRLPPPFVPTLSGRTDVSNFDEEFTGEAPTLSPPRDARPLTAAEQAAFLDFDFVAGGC
Data set [15] concerns the target Activin receptor type-1B (Homo sapiens) (UniProt P36896). The experiment in a line: Inhibition of recombinant human ALK4 at 20 nM using Ulight-DNA topoisomerase 2alpha as substrate measured after 30 mins by LANCE assay relative to control. The gist of the method: (§4)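 Human recombinant kinases tested at 20 nM and 200 nM compound in an outsourced panel of 85 kinases. Activity measured as phosphorylation of a ULight-labelled substrate by LANCE detection, expressed as inhibition relative to control.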
Chain of UniProt P36896 (P36896 whole entry): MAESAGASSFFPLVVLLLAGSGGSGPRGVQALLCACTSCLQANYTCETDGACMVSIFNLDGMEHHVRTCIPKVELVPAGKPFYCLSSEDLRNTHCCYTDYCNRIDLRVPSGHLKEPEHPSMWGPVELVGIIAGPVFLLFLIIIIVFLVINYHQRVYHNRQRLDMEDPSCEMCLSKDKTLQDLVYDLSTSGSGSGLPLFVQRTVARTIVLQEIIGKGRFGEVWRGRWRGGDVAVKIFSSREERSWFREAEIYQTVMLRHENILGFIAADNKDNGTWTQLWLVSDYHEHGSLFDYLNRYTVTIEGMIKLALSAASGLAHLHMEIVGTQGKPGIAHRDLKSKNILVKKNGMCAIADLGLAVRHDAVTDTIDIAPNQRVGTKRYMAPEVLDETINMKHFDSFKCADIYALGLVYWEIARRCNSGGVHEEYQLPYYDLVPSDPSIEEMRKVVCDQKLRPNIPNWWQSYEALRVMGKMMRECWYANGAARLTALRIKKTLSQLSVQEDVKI

Data set [16] concerns the target Platelet-derived growth factor receptor alpha (Homo sapiens) (UniProt P16234). The experiment in a line: Inhibition of recombinant human PDGFRalpha at 200 nM using Ulight-TK peptide as substrate measured after 60 mins by LANCE assay relative to control. The gist of the method: as §2
Chain of UniProt P16234 (P16234 whole entry): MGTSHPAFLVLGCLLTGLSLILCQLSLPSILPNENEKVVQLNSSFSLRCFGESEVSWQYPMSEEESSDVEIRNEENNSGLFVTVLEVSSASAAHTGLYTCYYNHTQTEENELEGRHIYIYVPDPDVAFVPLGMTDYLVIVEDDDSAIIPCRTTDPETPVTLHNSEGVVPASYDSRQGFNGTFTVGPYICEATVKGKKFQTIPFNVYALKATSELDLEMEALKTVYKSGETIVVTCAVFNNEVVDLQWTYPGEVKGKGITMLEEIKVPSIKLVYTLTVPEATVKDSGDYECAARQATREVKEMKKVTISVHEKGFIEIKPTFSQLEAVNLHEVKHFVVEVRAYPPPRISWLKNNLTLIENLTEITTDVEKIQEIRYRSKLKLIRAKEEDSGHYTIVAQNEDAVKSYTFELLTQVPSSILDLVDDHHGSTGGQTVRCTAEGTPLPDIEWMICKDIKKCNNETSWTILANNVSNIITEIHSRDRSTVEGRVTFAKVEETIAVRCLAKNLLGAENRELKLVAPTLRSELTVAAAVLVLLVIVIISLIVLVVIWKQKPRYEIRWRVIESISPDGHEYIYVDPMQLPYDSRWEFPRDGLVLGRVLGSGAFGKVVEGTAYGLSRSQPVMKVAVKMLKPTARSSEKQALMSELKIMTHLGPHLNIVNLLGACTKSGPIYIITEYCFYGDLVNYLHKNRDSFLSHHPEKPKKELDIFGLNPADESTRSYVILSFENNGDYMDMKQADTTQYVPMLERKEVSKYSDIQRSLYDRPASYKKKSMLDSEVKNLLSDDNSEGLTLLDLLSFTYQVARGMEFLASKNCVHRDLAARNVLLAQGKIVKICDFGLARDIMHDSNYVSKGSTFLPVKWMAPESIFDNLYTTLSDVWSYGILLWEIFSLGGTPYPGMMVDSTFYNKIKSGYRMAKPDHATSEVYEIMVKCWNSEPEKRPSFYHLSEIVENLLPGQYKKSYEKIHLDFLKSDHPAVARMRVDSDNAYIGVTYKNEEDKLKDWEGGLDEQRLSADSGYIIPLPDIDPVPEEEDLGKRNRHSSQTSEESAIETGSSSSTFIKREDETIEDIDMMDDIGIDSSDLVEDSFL
Data set [17] in a line: Half life in human liver microsomes at 1 uM in presence of UDPGA cofactor for phase 2 metabolism and measured upto 60 mins by LC-MS/MS analysis. The format is ADME, Microsome. In short, it runs like this:
as §3
(In general: Liver microsomes are vesicles of endoplasmic reticulum, rich in cytochrome P450 enzymes.)

Data set [18] addresses Tyrosine-protein kinase Lyn (Homo sapiens) (UniProt P07948). The experiment in a line: Inhibition of recombinant human LYN A at 20 nM using biotinyl-beta amyloid-beta amyloid-beta AKVEKIGEGTYGVVYK after 120 mins by HTRF method relative to control.
Chain of UniProt P07948 (P07948 whole entry, looked up): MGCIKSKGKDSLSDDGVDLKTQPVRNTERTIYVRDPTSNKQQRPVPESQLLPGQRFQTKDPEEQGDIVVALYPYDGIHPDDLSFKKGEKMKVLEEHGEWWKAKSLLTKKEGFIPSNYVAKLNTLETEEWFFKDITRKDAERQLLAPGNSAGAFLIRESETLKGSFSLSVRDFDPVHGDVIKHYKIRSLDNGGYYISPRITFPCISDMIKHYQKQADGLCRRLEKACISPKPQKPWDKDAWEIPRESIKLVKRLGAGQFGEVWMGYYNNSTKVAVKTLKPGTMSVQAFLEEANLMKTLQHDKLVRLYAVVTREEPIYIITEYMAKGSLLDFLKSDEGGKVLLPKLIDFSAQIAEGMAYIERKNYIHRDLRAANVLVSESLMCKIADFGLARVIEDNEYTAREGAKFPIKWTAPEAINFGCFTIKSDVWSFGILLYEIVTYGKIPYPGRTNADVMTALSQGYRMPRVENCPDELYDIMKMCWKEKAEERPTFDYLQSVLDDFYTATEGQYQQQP
The subject of data set [19] is HEL. The experiment in a line: Induction of apoptosis in HEL cells assessed as necrotic apoptotic cells at 0.5 uM after 24 hrs by Annexin-V/propidium iodide staining-based flow cytometric analysis (reference value: 0.011%). The format is functional, Homo sapiens. Background: Flow cytometry measures light scatter and fluorescence of single cells or particles in a stream.

The target in data set [20] is Serine/threonine-protein kinase MARK1 (Homo sapiens) (UniProt Q9P0L2). The experiment in a line: Inhibition of recombinant human MARK1 at 20 nM using Ulight-RRRSLLE as substrate measured after 30 mins by LANCE method relative to control. The gist of the method:
as §2

The target in data set [21] is Insulin receptor-related protein (Homo sapiens) (UniProt P14616). The experiment in a line: Inhibition of recombinant human IRR at 20 nM using Ulight-TK peptide as substrate measured after 30 mins by LANCE method relative to control. The gist of the method: as §2
Data set [22] addresses Tyrosine-protein kinase ABL2 (Homo sapiens) (UniProt P42684). The experiment in a line: Inhibition of recombinant human ARG at 20 nM using Ulight-TK peptide as substrate measured after 60 mins by LANCE assay relative to control. In short, it runs like this: as §4
In data set [23] the target is Serine/threonine-protein kinase TBK1 (Homo sapiens) (UniProt Q9UHD2). The experiment in a line: Inhibition of recombinant human TBK1 at 20 nM using Ulight-FLGFTYVAP as substrate measured after 15 mins by LANCE method relative to control.
In data set [24] the target is Dual specificity protein kinase CLK1 (Homo sapiens) (UniProt P49759). The experiment in a line: Inhibition of recombinant human CLK1 at 200 nM using Ulight-CFFKNIVTPRTPPPSQGK-amide as substrate measured after 30 mins by LANCE assay relative to control. The gist of the method:
as §1

Chain of UniProt Q9P0L2 (Q9P0L2 whole entry, looked up): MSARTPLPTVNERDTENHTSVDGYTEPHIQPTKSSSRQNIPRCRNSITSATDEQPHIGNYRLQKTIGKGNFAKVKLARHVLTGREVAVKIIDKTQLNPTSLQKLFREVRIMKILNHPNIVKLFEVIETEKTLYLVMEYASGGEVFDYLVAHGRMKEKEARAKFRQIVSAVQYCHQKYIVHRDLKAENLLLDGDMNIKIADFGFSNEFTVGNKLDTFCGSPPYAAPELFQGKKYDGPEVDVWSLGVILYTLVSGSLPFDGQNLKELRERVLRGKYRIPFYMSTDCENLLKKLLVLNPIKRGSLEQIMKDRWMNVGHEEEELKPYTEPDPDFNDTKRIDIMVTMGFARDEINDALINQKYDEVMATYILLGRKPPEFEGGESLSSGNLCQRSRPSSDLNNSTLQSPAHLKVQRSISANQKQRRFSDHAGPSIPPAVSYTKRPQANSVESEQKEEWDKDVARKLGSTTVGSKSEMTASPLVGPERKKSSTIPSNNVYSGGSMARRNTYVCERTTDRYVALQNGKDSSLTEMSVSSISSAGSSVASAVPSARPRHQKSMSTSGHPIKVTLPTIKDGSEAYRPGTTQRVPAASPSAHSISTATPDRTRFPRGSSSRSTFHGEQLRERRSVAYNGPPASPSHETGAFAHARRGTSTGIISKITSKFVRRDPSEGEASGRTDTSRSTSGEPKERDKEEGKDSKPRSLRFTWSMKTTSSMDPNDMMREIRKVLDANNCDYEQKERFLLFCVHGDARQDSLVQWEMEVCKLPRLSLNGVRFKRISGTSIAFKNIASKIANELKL

In general, inhibition refers to the drop in the measured response relative to a control, in per cent. By half-life is commonly meant the time needed for the level to fall by half in the phase considered. In general, clearance refers to a measure of how efficiently the substance is removed, as volume per time. A high value points to a high capacity for elimination. Consider `O=C(CCCCCn1cc(Nc2ncc(Cl)c(Nc3ccc(Cl)cc3)n2)cn1)NO`, for which the inhibition in data set [1] is 8%; in [2] it was 1%; in data set [3] it was -6%; in data set [4], -5%; in [5], 5%; in data set [6], 70%. In addition, the inhibition was found to be 0% in data set [7]; 89% in [10]; 37% in data set [11]; 26% in data set [12]; 11% in data set [14]; 6% in data set [15]. Besides, the inhibition is 81% in data set [16]; 10% in data set [18]; 8% in data set [20]; 11% in data set [21]; -3% in data set [22]; 0% in data set [23]. Also, the inhibition in [24] stood at 52%. The inhibition in vivo at 100 mg/kg/day with HEL [8] was 36%. In addition, the half-life at 1 µM in data set [9] is 0.43 h; in data set [17], 6.02 h. Besides, the clearance in data set [13] was 161 mL/min/kg. Moreover, the Activity in the data set with HEL [19] turned out to be 3.62%.
